Source: paper PMC4336329 (PLoS ONE, 2015)
Among all 310,000 compounds or so, about 2,200 (0.71%) showed an effect of 50% or more. The effect is printed as a negative number. The list shows a part of the results.

These molecules were tested against human ether-à-go-go-related gene (hERG) potassium channel (human, UniProt Q12809) (assay: primary screen, population patch clamp on CHO cells stably expressing hERG).
human ether-à-go-go-related gene (hERG) potassium channel, sequence (Q12809 whole entry, looked up): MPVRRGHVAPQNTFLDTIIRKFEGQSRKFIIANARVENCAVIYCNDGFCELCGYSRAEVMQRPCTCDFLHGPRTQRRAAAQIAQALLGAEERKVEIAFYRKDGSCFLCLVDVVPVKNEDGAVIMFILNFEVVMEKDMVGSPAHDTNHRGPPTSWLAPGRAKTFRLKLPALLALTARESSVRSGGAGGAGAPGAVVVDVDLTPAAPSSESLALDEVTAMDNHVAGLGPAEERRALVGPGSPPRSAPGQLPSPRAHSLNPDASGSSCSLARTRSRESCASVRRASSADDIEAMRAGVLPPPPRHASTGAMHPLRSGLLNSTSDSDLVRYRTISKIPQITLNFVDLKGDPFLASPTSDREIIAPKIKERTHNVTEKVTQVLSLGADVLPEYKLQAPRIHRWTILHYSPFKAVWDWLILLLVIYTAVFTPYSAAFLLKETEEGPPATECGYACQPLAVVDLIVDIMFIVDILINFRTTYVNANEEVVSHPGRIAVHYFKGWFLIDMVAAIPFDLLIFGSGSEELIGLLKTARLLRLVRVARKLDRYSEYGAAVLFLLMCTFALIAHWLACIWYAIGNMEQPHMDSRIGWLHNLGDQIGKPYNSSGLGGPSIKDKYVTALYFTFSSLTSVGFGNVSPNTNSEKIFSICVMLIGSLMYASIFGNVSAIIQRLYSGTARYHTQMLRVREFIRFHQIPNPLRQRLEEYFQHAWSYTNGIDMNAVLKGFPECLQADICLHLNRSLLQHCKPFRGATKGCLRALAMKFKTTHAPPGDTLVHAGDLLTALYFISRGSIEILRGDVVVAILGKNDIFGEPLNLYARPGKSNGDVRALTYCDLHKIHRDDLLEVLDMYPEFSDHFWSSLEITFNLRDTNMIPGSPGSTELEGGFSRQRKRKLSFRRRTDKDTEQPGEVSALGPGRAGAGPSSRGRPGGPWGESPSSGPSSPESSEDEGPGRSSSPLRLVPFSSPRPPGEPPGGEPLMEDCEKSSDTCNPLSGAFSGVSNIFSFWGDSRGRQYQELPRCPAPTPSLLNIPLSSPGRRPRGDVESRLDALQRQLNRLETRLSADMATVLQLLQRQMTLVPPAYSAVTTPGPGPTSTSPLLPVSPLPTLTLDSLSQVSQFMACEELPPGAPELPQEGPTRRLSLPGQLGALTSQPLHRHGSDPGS

Row | SMILES | hERG current change (%, negative = inhibition) at 1uM
1 | COCCNC(=O)c1c(N)n(CCCn2ccnc2)c2nc3ccccc3nc12 | 16.8%
2 | C(=C\c1nc(-c2ccncc2)no1)/c1ccccc1 | 9.45%
3 | CCCSc1ccc([C@@H]2[C@@H]3C(=O)N(C)C(=O)[C@@H]3[C@]3(C(=O)OC)CCCCN23)cc1OC.O=C(O)C(F)(F)F | -2.11%
4 | CCCNC(=O)NC1C(NC(=O)NCCC)N(C)C(=O)N1C (stereo not shown) | 5.39%
5 | CCn1c(O)c(N=NC(=O)Cc2csc(N3CCOCC3)n2)c2ccccc21 | 3.37%
6 | Cc1cc(NCc2ccccn2)ccc1Br | 5.23%
7 | O=C(NC(Cc1ccccc1)C(=O)O)/C(=C\c1ccco1)NC(=O)c1ccco1 (stereo not shown) | 5.94%
8 | CCS(=O)(=O)N1CCc2nc(-c3ccccc3)sc2C1 | -5.31%
9 | CN1CC(=O)N(C)c2nc(Br)n(C)c2C1=O | -4.07%
10 | O=C(N/N=C/c1ccc(Sc2ccccn2)o1)c1cc2ccccc2cc1O | 11%
11 | O=C(NCc1cccc(Cl)c1)C1CCC(=O)N(C2CC2)C1 (stereo not shown) | 12.3%
12 | CN(CCC#N)C(=O)CC1(Cc2ccccc2)CCOC(C)(C)C1 (stereo not shown) | 6.25%
13 | COC(=O)c1ccc(COc2cccc(C)c2C)cc1 | -9.02%
14 | Cn1c(N)c(C(=O)c2ccc(Cl)cc2)c(=O)n(C)c1=O | 9.49%
15 | Cc1ccc(C(=O)O/N=C(\N)c2ccccn2)cc1Cl | 17.9%
16 | CCC(=O)OC1c2ccccc2C(=O)N1Cc1ccccc1 (stereo not shown) | -6.18%
17 | COc1ccc(C(=O)N/N=C/c2ccc(N3CCOCC3)s2)cc1OC | 13.6%
18 | CCSC1=NCCN1S(=O)(=O)c1ccc(NC(C)=O)cc1 | -1.02%
19 | CC(=O)c1ccc(OCC(=O)Nc2ccccc2C(=O)NC2CC2)cc1 | 18.3%
20 | COC(=O)C1=C(C)N(Cc2cccnc2)C(=O)/C1=C\c1cccs1 | -43.3%
21 | COC(=O)c1ccc(NC(=O)COc2ccc(C3C(C#N)=C(N)Oc4c3ccc3ccccc43)cc2OC)cc1 (stereo not shown) | 6.75%
22 | COc1cc(/C=C(\C#N)C(=O)Nc2ccc(SC(F)F)cc2)cc(OC)c1OC | 14.9%
23 | Cc1nnc(SCC(=O)Nc2ncc3c(n2)CC(c2ccccc2)CC3=O)s1 (stereo not shown) | 11.7%
24 | O=C(/C=C/c1cccc([N+](=O)[O-])c1)NCc1cccnc1 | 2.85%
25 | CCCc1nc2c(sc3nc4c(cc32)COC(C)(C)C4)c(=O)n1Cc1ccco1 | -6.18%
26 | O=C1CC(c2ccccc2)=NN1c1nc(-c2ccccc2)cs1 | 14.2%
27 | Cc1ccc(NC(=O)CN2CCC(C(=O)c3ccc4c(c3)OCCO4)CC2)cc1 | 7.38%
28 | Cc1nnc(SCC(=O)c2ccccc2)n1Cc1ccccc1 | 12.3%

Row | SMILES | hERG current change (%, negative = inhibition) at 1uM
29 | Cc1ccc(-n2cc(CN(C)CCc3cn[nH]c3)c(-c3cccc(C)c3)n2)cc1 | -15.4%
30 | CC(=O)c1sc(NC(=O)CS(=O)(=O)c2ccc(F)cc2)nc1C | -11.4%
31 | COc1ccccc1C(CNC(=O)c1ccc(C)c(S(=O)(=O)N2CCCCC2)c1)N(C)C (stereo not shown) | 3.32%
32 | CCN1CCN(Cc2ccc(NC(=O)c3ccc(C)c(NC(=O)C(=O)c4c[nH]c5ccccc45)c3)cc2C(F)(F)F)CC1.O=C(O)C(F)(F)F | 11.1%
33 | CC(=O)c1c(C)[nH]c(C2=NNC(=NCc3ccccc3)SC2)c1C | 18.2%
34 | Cl.OCc1cc(CO)c(O)c(CCc2ccccc2)n1 | 8.52%
35 | CCc1ccc(CN(C)C(=O)CCc2nnc(CCc3cccc(OC)c3)o2)nc1 | -4.58%
36 | COc1ccc(-c2nn(-c3ccccc3)cc2/C=C(\C#N)S(=O)(=O)c2ccccc2)cc1OC | 18.2%
37 | CSc1cccc(NC(=O)CNC(=O)C2CCCCC2)c1 | 11.1%
38 | COc1ccc(NC(=O)/C=C/c2ccc(Br)o2)cn1 | 15.7%
39 | COc1ccc(-n2c(C)nc3ccccc3c2=O)c([N+](=O)[O-])c1 | -1.42%
40 | C=CCn1c(O)c(C(C)=NCCO)c(=O)[nH]c1=O | 11.6%
41 | O=C(Nc1nc(-c2ccc(F)cc2)cs1)C1CCN(C(=O)c2ccc(F)cc2)CC1 | -12.9%
42 | CCc1nn(C(C)C(=O)NCCN2CCN(c3cccc(C)c3C)CC2)c(=O)c2cc3occc3n12 (stereo not shown) | -12.2%
43 | O=C(Nc1cccc(O)c1)c1cccc(S(=O)(=O)Nc2cccc(O)c2)c1 | 16%
44 | C=CCn1c(COc2ccccc2F)nnc1SCC(=O)N1CC(=O)Nc2ccccc21 | -17.7%
45 | CCC(C)N(C(=O)CSc1nc2ccc(OC)cc2[nH]1)C1CCS(=O)(=O)C1 (stereo not shown) | 16.6%
46 | COc1cc(NC(=O)c2ccc(F)cc2)c(OC)cc1NC(=O)CN1CCOCC1 | 3.57%
47 | C/C(N)=C(/C#N)C(=O)CSc1cc(C)c2ccccc2n1 | 9.74%
48 | CN(CCO)c1cc(N2CCCCC2)c2nonc2c1[N+](=O)[O-] | 15%
49 | COc1ccc(C(=O)C2CCCN(Cc3cccn3-c3nccs3)C2)cc1F (stereo not shown) | -91.4%
50 | Nc1nonc1C(=O)N/N=C/c1cc2c(cc1Br)OCO2 | -2.52%
51 | O=C(Nc1ccccc1N1CCN(C(=O)c2ccc(Cl)cc2)CC1)c1cccnc1 | -77%
52 | CC(C)(O)C1=NOC(c2ccccc2)C1 (stereo not shown) | 10.9%
53 | CCCCn1c(SCC(=O)N2CCOCC2)nc2ccccc2c1=O | -39.4%
54 | COCCSc1nnc(NC(=O)c2ccc([N+](=O)[O-])cc2)s1 | 12.7%
55 | C=CCN1C(=O)NC(c2ccccc2)(C(F)(F)F)S/C1=C(\C#N)c1nnc(N2CCOCC2)n1-c1ccccc1 (stereo not shown) | 13.9%
